According to PubChem BioAssay AID504466 (National Center for Advancing Translational Sciences (NCATS), 2011):
The campaign covered roughly 330,000 compounds. About 4,200 (1.3%) were called active. Inconclusive means that the source gave no clear call. Such entries were picked first, then a sample of the others. The call rests on the fitted dose curve; in most records, active means well fitted activation curve with a large enough effect; inconclusive means small, poorly fitted or top-dose-only effect; inactive means no such curve, though single readings can be large or run the other way. Potencies beside an inconclusive call are fits to weak or partial responses and may not hold up.

Assay: qHTS screen for small molecules that induce genotoxicity in human embryonic kidney (HEK293T) cells expressing luciferase-tagged ELG1; further: nearly all actives have a fitted effect of over 60% in size
Conditions: HEK293T ELG1-luciferase reporter, luminescence, 16 h; series mostly up to 46 µM
In short: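 Genotoxic stress is detected as increased luminescence from luciferase-tagged ELG1 in HEK293T cells, measured with ONE-Glo after a 16 hr treatment at 37 °C.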
Potency means the concentration at half of the fitted maximal effect; tags describe the fitted curve by direction and shape.

Compound | Potency
CC(=O)N1c2ccc(S(=O)(=O)N(C)c3cc(C)ccc3C)cc2CC1C (centres undefined) | inactive
CCc1ccc(C(=O)NNc2ccc(F)cc2)cc1 | inconclusive: 13 µM [activator, partial curve, poor fit]
CC(C)C1Oc2ccccc2C(=O)N(CC(=O)c2ccc3c(c2)OCCO3)C1=O (centres undefined) | inconclusive: 2.31 µM [activator, full curve]
COc1ccc(/C(N)=N/OC(=O)c2ccc3c(c2)OCO3)cc1 | inconclusive: 16.4 µM [activator, partial curve]
COCc1cc(=O)n2c(-c3ccccc3OC)n[nH]c2n1 | inactive
COc1ccc(-c2cc(C(=O)N3CCCCCC3)no2)cc1OC | inconclusive: 4.11 µM [activator, single point]
O=C(Cc1ccccc1)Nc1cc2c(cc1Cl)OCCCO2 | inconclusive: 18.3 µM [activator, partial curve]
COc1ccc(NS(=O)(=O)c2ccc3c(c2)CCN3C(=O)CCC(=O)O)cc1OC | inactive
COC(=O)c1cc(NC(=O)COC(=O)CN2C(=O)C3CC=CCC3C2=O)cc(C(=O)OC)c1 (centres undefined) | inconclusive: 18.3 µM [activator, partial curve, poor fit]
CC(C)(C)C(=O)c1sc(Nc2ccccc2)nc1N | active: 1.3 µM
Cc1cccc(NC(=O)C(=O)NCC2CCCO2)c1 (centres undefined) | inconclusive: 14.6 µM [activator, partial curve]
COC(=O)c1ccc(Cn2cc(C(F)(F)F)cc([N+](=O)[O-])c2=O)cc1 | inactive
CCn1c(SCC(=O)Nc2ccc(F)cc2)nc2ccccc2c1=O | inactive
Cc1cc(C(=O)Nc2nnc(C(F)(F)F)s2)cs1 | inactive
O=C(NCc1ccccn1)Nc1ccccc1 | inconclusive: 18.3 µM [activator, partial curve]
CCOC(=O)N1CCN(S(=O)(=O)c2ccc(C(=O)Nc3sc4c(c3C(=O)OC)CCN(C)C4)cc2)CC1 | inconclusive: 29.1 µM [activator, single point]
O=C(Nc1nc2cc3c(cc2s1)OCO3)C1CCCCC1 | inconclusive: 1.46 µM [activator, partial curve]
CC(=O)Nc1ccc(OC(=O)c2ccc(Br)c([N+](=O)[O-])c2)cc1 | inconclusive: 20.6 µM [activator, partial curve, poor fit]
CCCN1C(=O)S/C(=C\c2ccc(N3CCOCC3)cc2C)C1=O | inconclusive: 2.31 µM [activator, full curve]
Fc1ccc(-c2nnc(-c3ccc(Cl)cc3Cl)o2)cc1 | active: 1.64 µM
COc1ccc(-c2cc3nc(C)cc(C)n3n2)cc1 | inconclusive: 5.17 µM [activator, single point]
COc1ccc(COC(=O)N/N=C/c2cccs2)cc1 | inconclusive: 20.6 µM [activator, partial curve, poor fit]
CCC(NC(=O)Cc1c(C)c2cc3c(cc2oc1=O)OC(C)(C)CC3)C(=O)O (centres undefined) | inactive
Cc1ccsc1C(=O)OCc1nc2ccccc2c(=O)[nH]1 | inconclusive: 18.4 µM [activator, single point]
COc1ccc(OCc2cccc(C(=O)NN)c2)cc1 | inconclusive: 0.651 µM [activator, partial curve]

Compound | Potency
CCCc1ccc2oc(C(=O)N3CCNC(=O)C3CC(=O)OC)c(C)c2c1 (centres undefined) | inconclusive: 25.9 µM [activator, partial curve, poor fit]
Nc1c(C(=O)Nc2ccc3c(c2)OCCO3)nnn1Cc1cccc(F)c1 | inconclusive: 7.3 µM [activator, partial curve, poor fit]
Nc1nc2ccc(NC(=O)c3ccco3)cc2s1 | inconclusive: 20.6 µM [activator, partial curve]
COc1ccc(NC(=O)c2ccc3c(c2)N(C)CCS3)cc1 | inconclusive: 3.66 µM [activator, full curve]
CS(=O)(=O)N1CCc2nc(-c3ccccc3)sc2C1 | active: 9.2 µM
CC(C)Oc1ccc(C(=O)OCC(=O)NC(=O)NC2CCCC2)cc1 | inactive
COc1ccc(CN2C(=NC(=O)C3CCCCC3)SC3CS(=O)(=O)CC32)cc1 (centres undefined) | inactive
CCOC(=O)c1ccc(N=NN(C)C)cc1 | inconclusive: 23.1 µM [activator, single point]
CCCCCc1nnc(NC(=O)C2COc3ccccc3O2)s1 (centres undefined) | inconclusive: 18.3 µM [activator, partial curve, poor fit]
Cc1nc(NC(=O)CSc2ccc(-c3nc4ccccc4[nH]3)cn2)sc1C | inconclusive: 25.9 µM [activator, single point]
Nc1ccc(-c2nc3ccccc3[nH]2)cc1 | active: 2.91 µM
COc1cccc(C(=O)O/N=C(\N)c2ccc(C)cc2)c1 | inconclusive: 9.2 µM [activator, partial curve]
COc1ccc(-c2nnc(SCc3nc4ccccc4s3)n2C(C)C)cc1 | inconclusive: 23.1 µM [activator, partial curve]
Nc1nc(-c2ccccc2)c(N=Nc2cccc3ccccc23)s1 | inactive
O=C(c1ccco1)N1CCN(C(=O)c2ccc(-c3ccc(Cl)cc3)o2)CC1 | inactive
COc1ccc(C2=NOC(C(=O)Nc3ccc(C(C)=O)cc3)C2)cc1OC (centres undefined) | inconclusive: 18.4 µM [activator, partial curve, poor fit]
COc1ccccc1-c1nc(-c2ccncc2)no1 | inconclusive: 5.8 µM [activator, partial curve]
Cc1c(NS(=O)(=O)c2cc(C(=O)NCC3CCCO3)cc(Cl)c2Cl)c(=O)n(-c2ccccc2)n1C (centres undefined) | inactive
CC(C)[C@@H]1COC(c2cccc(C3=N[C@H](C(C)C)CO3)c2)=N1 | inconclusive: 23.1 µM [activator, partial curve]
S=C(NCCc1ccccc1)Nc1cnc2ccccc2c1 | inconclusive: 16.4 µM [activator, partial curve, poor fit]
Cc1ccc(S(=O)(=O)N(C)CC(=O)NNC(=O)Cc2cccc(F)c2)cc1 | inactive
COC(=O)c1cc(=O)n(Cc2cccs2)c(=Nc2ccccc2)s1 | inactive
Cc1ccc(NC(=O)C(C)OC(=O)CSc2ccccc2)cc1 (centres undefined) | inactive
Cc1nc(C)c(C(=O)Nc2ccccc2)s1 | inconclusive: 32.6 µM [activator, partial curve, poor fit]
O=C(N/N=C/c1cccc(O)c1)c1ccccc1O | inconclusive: 23.1 µM [activator, single point]

Compound | Potency
O=C(NCc1ccccn1)Nc1ccc(Br)cc1Cl | inconclusive: 18.3 µM [activator, single point]
COCCNC(=O)c1ccc(-c2csc(C)n2)cc1 | inconclusive: 18.3 µM [activator, partial curve]
CS(=O)(=O)C1=NSC2=NC(=O)/C(=C\c3cccn3-c3ccc(Cl)cc3)C(=N)N21 | inactive
CSc1nc(-c2ccccc2F)c(C#N)c(=O)n1C | inactive
CC(Sc1nn(-c2ccc(F)cc2)c(=S)s1)C(=O)c1c(N)n(C)c(=O)n(C)c1=O (centres undefined) | inconclusive: 23.1 µM [activator, partial curve]
CCOc1ccc(-c2cc(CCCC(=O)NCCc3ccccc3)no2)cc1 | inconclusive: 9.2 µM [activator, partial curve, poor fit]
CCC1(CC)NC(=O)N(CC(=O)N2CCN(S(=O)(=O)c3cccc(F)c3)CC2)C1=O | inactive
Cc1ccc2nc(-c3ccc(NC(=O)CNC4CC4)cc3)sc2c1 | inconclusive: 2.31 µM [activator, full curve]
CCOc1ccc(-c2cn3ccccc3n2)cc1 | inconclusive: 0.651 µM [activator, partial curve, poor fit]
CCc1ccccc1-n1c(SCC(=O)Nc2ccc3c(c2)OCCO3)nc2[nH]ncc2c1=O | inconclusive: 18.4 µM [activator, partial curve]
Clc1ccccc1-c1ncc(-c2ccccc2)o1 | active: 4.61 µM
O=C(/C=C/c1ccc(F)cc1)N1CCCc2ccccc21 | inactive
COc1ccc(C(=O)Nc2ccc(S(=O)(=O)NC(C)(C)C)cc2)cc1[N+](=O)[O-] | inactive
Cc1cc(=O)oc2cc(OCC(=O)Nc3nccs3)ccc12 | active: 10.3 µM
C=CCOC(=O)/C(=C\c1ccccc1)NC(=O)c1ccc(C)cc1 | inconclusive: 18.3 µM [activator, single point]
Cc1cccc(OCCCC(=O)Nc2nc3ccccc3[nH]2)c1 | inconclusive: 16.4 µM [activator, partial curve]
COc1ccc(C(=O)N=C2SC3CS(=O)(=O)CC3N2c2ccc(N(C)C)cc2)cc1OC (centres undefined) | inconclusive: 9.2 µM [activator, partial curve, poor fit]
CCOc1cc(/C=C2\C(=O)ON=C2c2ccccc2)ccc1OC | inconclusive: 29.1 µM [activator, single point]
O=C(Nc1nccs1)c1ccc2ccccc2n1 | inconclusive: 3.98 µM [activator, full curve, poor fit]
O=C(c1cnn2ccccc12)N1CCc2ccccc21 | active: 4.11 µM
c1ccc2nc3c(nc2c1)[nH]c1ccccc13 | active: 9.2 µM
CC(=O)Nc1cccc(NC(=O)c2ccc(COc3ccccc3)cc2)c1 | active: 14.6 µM
CCOC(=O)C1CCN(C(=O)C(C)N(c2ccc(Oc3ccccc3)cc2)S(C)(=O)=O)CC1 (centres undefined) | inactive
CCSc1nnc2ccc(-c3ccc(OC)c(OC)c3)nn12 | inconclusive: 20.6 µM [activator, single point]
